Measurements from patent US9695132B2, “Heteroaryl compounds and uses thereof” (Celgene CAR LLC, priority 2013, dated 2017).

Biological target: FGFR4 (Homo sapiens (Human), UniProt P22455)
Assay: Protein mass modification assay (MALDI, intact FGFR4)
Assay type: binding
Details: 10-fold excess of compound, 60 min
[1] = method a: FGFR4 intact protein from SignalChem
[2] = method b: FGFR4 intact protein from Invitrogen

Structure (SMILES) | MS FGFR4 (mass modification) [1] | MS FGFR4 (mass modification) [2]
C=CC(=O)NC1CCCCC1Nc1ncc2c(n1)N(Cc1cccc(NC(=O)CC)c1)C(=O)N(c1c(Cl)c(OC)cc(OC)c1Cl)C2 (racemic) [Compound I-8] | F (mass modification of 31-69%) | 
C=CC(=O)NC1CCCCC1Nc1ncc2c(n1)N(C)C(=O)N(c1c(Cl)c(OC)cc(OC)c1Cl)C2 (racemic) [Compound I-19] | E (mass modification of ≧70%) | 
C=CC(=O)NC1CCCCC1Nc1ncc2c(n1)N(Cc1cccnc1)C(=O)N(c1c(Cl)c(OC)cc(OC)c1Cl)C2 (racemic) [Compound I-35] | E (mass modification of ≧70%) | 
C=CC(=O)NC1CCCCC1Nc1ncc2c(n1)N(C1CCCN(C(=O)OC(C)(C)C)C1)C(=O)N(c1cc(OC)cc(OC)c1)C2 (racemic) [Compound I-45] |  | F (mass modification of 31-69%)
C=CC(=O)NC1CCCCC1Nc1ncc2c(n1)N(C1CCCNC1)C(=O)N(c1cc(OC)cc(OC)c1)C2 (racemic) [Compound I-46] | G (mass modification ≦30%) | 
C=CC(=O)NC1CCCCC1Nc1ncc2c(n1)N(CC#N)C(=O)N(c1c(Cl)c(OC)cc(OC)c1Cl)C2 (racemic) [Compound I-47] | E (mass modification of ≧70%) | 
C=CC(=O)NC1CCCCC1Nc1ncc2c(n1)N(Cc1cscn1)C(=O)N(c1c(Cl)c(OC)cc(OC)c1Cl)C2 (racemic) [Compound I-69] |  | E (mass modification of ≧70%)
C=CC(=O)Nc1ccccc1Nc1ncc2c(n1)N(C)C(=O)N(c1c(Cl)c(OC)cc(OC)c1Cl)C2 [Compound I-2] | E (mass modification of ≧70%) | 
C=CC(=O)Nc1ccccc1Nc1ncc2c(n1)N(Cc1ccccc1)C(=O)N(c1c(Cl)c(OC)cc(OC)c1Cl)C2 [Compound I-3] | F (mass modification of 31-69%) | 
C=CC(=O)Nc1ccccc1Nc1ncc2c(n1)N(C)C(=O)N(c1cc(OC)cc(OC)c1)C2 [Compound I-5] | E (mass modification of ≧70%) | 
C=CC(=O)Nc1cc(N2CCN(CCOC)CC2)ccc1Nc1ncc2c(n1)N(Cc1cccc(NC(=O)CC)c1)C(=O)N(c1cc(OC)cc(OC)c1)C2 [Compound I-9] | F (mass modification of 31-69%) | 
C=CC(=O)Nc1cc(C(F)(F)F)ccc1Nc1ncc2c(n1)N(Cc1ccccc1)C(=O)N(c1c(Cl)c(OC)cc(OC)c1Cl)C2 [Compound I-10] | G (mass modification ≦30%) | 
C=CC(=O)Nc1cc(Cl)c(Cl)cc1Nc1ncc2c(n1)N(Cc1ccccc1)C(=O)N(c1c(Cl)c(OC)cc(OC)c1Cl)C2 [Compound I-11] | F (mass modification of 31-69%) | 
C=CC(=O)Nc1ccccc1Nc1ncc2c(n1)N(Cc1cccc(F)c1)C(=O)N(c1c(Cl)c(OC)cc(OC)c1Cl)C2 [Compound I-12] | E (mass modification of ≧70%) | 
C=CC(=O)Nc1cc(N(C)CCOC)ccc1Nc1ncc2c(n1)N(Cc1ccccc1)C(=O)N(c1cc(OC)cc(OC)c1)C2 [Compound I-13] | E (mass modification of ≧70%) | 
C=CC(=O)Nc1cc(OCCOC)ccc1Nc1ncc2c(n1)N(Cc1ccccc1)C(=O)N(c1cc(OC)cc(OC)c1)C2 [Compound I-14] | E (mass modification of ≧70%) | 
C=CC(=O)Nc1cc(N2CCN(CC)CC2)ccc1Nc1ncc2c(n1)N(C)C(=O)N(c1cc(OC)cc(OC)c1)C2 [Compound I-15] | E (mass modification of ≧70%) | 
C=CC(=O)Nc1cc(N2CCOCC2)ccc1Nc1ncc2c(n1)N(C)C(=O)N(c1cc(OC)cc(OC)c1)C2 [Compound I-17] | E (mass modification of ≧70%) | 
C=CC(=O)Nc1cc(N2CCN(CCOC)CC2)ccc1Nc1ncc2c(n1)N(C)C(=O)N(c1cc(OC)cc(OC)c1)C2 [Compound I-20] | F (mass modification of 31-69%) | 
C=CC(=O)Nc1cc(N(C)CCOC)ccc1Nc1ncc2c(n1)N(C)C(=O)N(c1cc(OC)cc(OC)c1)C2 [Compound I-21] | F (mass modification of 31-69%) | 
C=CC(=O)Nc1ccccc1Nc1ncc2c(n1)N(C1CC1)C(=O)N(c1c(Cl)c(OC)cc(OC)c1Cl)C2 [Compound I-23] | E (mass modification of ≧70%) | 
C=CC(=O)Nc1ccccc1Nc1ncc2c(n1)N(Cc1ccc(Cl)c(OC)c1)C(=O)N(c1c(Cl)c(OC)cc(OC)c1Cl)C2 [Compound I-24] | E (mass modification of ≧70%) | 
C=CC(=O)Nc1ccccc1Nc1ncc2c(n1)N(Cc1ccc(F)cc1)C(=O)N(c1c(Cl)c(OC)cc(OC)c1Cl)C2 [Compound I-25] | E (mass modification of ≧70%) | 
C=CC(=O)Nc1ccccc1Nc1ncc2c(n1)N(Cc1cccc(N)c1)C(=O)N(c1c(Cl)c(OC)cc(OC)c1Cl)C2 [Compound I-26] | E (mass modification of ≧70%) | 
C=CC(=O)Nc1ccccc1Nc1ncc2c(n1)N(Cc1cccc(OC)c1)C(=O)N(c1c(Cl)c(OC)cc(OC)c1Cl)C2 [Compound I-28] | F (mass modification of 31-69%) | 

Structure (SMILES) | MS FGFR4 (mass modification) [1] | MS FGFR4 (mass modification) [2]
C=CC(=O)Nc1ccc(N2CCN(CC)CC2)cc1Nc1ncc2c(n1)N(C)C(=O)N(c1cc(OC)cc(OC)c1)C2 [Compound I-30] | F (mass modification of 31-69%) | 
C=CC(=O)Nc1cc(N2CCCCC2)ccc1Nc1ncc2c(n1)N(C)C(=O)N(c1cc(OC)cc(OC)c1)C2 [Compound I-31] | E (mass modification of ≧70%) | 
C=CCN1C(=O)N(c2cc(OC)cc(OC)c2)Cc2cnc(Nc3ccccc3NC(=O)C=C)nc21 [Compound I-32] | F (mass modification of 31-69%) | 
C=CC(=O)Nc1ccccc1Nc1ncc2c(n1)N(CC(O)CO)C(=O)N(c1cc(OC)cc(OC)c1)C2 (stereo not shown) [Compound I-33] | F (mass modification of 31-69%) | 
C=CC(=O)Nc1ccccc1Nc1ncc2c(n1)N(C1CC1)C(=O)N(c1cc(OC)cc(OC)c1)C2 [Compound I-34] | E (mass modification of ≧70%) | 
C=CC(=O)Nc1ccccc1Nc1ncc2c(n1)N(C1CCCN(C(=O)OC(C)(C)C)C1)C(=O)N(c1cc(OC)cc(OC)c1)C2 (stereo not shown) [Compound I-36] | F (mass modification of 31-69%) | 
C=CC(=O)Nc1ccccc1Nc1ncc2c(n1)N(C)C(=O)N(c1ccccc1)C2 [Compound I-38] | E (mass modification of ≧70%) | 
C=CC(=O)Nc1cc(C(F)(F)F)ccc1Nc1ncc2c(n1)N(C)C(=O)N(c1cc(OC)cc(OC)c1)C2 [Compound I-42] | F (mass modification of 31-69%) | 
C=CC(=O)Nc1ccccc1Nc1ncc2c(n1)N(C1CCCNC1)C(=O)N(c1cc(OC)cc(OC)c1)C2 (stereo not shown) [Compound I-43] |  | E (mass modification of ≧70%)
C=CC(=O)Nc1ccccc1Nc1ncc2c(n1)N(Cc1cccnc1)C(=O)N(c1cc(OC)cc(OC)c1)C2 [Compound I-44] |  | E (mass modification of ≧70%)
C=CC(=O)Nc1ccccc1Nc1ncc2c(n1)N(CC#N)C(=O)N(c1cc(OC)cc(OC)c1)C2 [Compound I-48] | E (mass modification of ≧70%) | 
C=CC(=O)Nc1ccc(C)cc1Nc1ncc2c(n1)N(C)C(=O)N(c1cc(OC)cc(OC)c1)C2 [Compound I-49] | E (mass modification of ≧70%) | 
C=CC(=O)Nc1ccc(C(F)(F)F)cc1Nc1ncc2c(n1)N(C)C(=O)N(c1cc(OC)cc(OC)c1)C2 [Compound I-50] | E (mass modification of ≧70%) | 
C=CC(=O)Nc1ccccc1Nc1ncc2c(n1)N(C)C(=O)N(C1CCCCC1)C2 [Compound I-52] | F (mass modification of 31-69%) | 
C=CC(=O)Nc1cc(C2CCN(CC)CC2)ccc1Nc1ncc2c(n1)N(C)C(=O)N(c1cc(OC)cc(OC)c1)C2 [Compound I-54] | F (mass modification of 31-69%) | 
C=CCCN1C(=O)N(c2cc(OC)cc(OC)c2)Cc2cnc(Nc3ccccc3NC(=O)C=C)nc21 [Compound I-57] | F (mass modification of 31-69%) | 
C=CC(=O)Nc1ccccc1Nc1ncc2c(n1)N(CCC(O)CO)C(=O)N(c1cc(OC)cc(OC)c1)C2 (stereo not shown) [Compound I-58] | F (mass modification of 31-69%) | 
C=CC(=O)Nc1ccccc1Nc1ncc2c(n1)N(Cc1cscn1)C(=O)N(c1cc(OC)cc(OC)c1)C2 [Compound I-64] |  | E (mass modification of ≧70%)
C=CC(=O)N[C@@H]1CCCC[C@@H]1Nc1ncc2c(n1)N(Cc1ccccc1)C(=O)N(c1c(Cl)c(OC)cc(OC)c1Cl)C2 [Compound I-66] |  | G (mass modification ≦30%)
C=CC(=O)N[C@H]1CCCC[C@H]1Nc1ncc2c(n1)N(Cc1ccccc1)C(=O)N(c1c(Cl)c(OC)cc(OC)c1Cl)C2 [Compound I-82] |  | F (mass modification of 31-69%)
C=CC(=O)Nc1ccccc1Nc1ncc2c(n1)N(C)C(=O)N(c1c(Cl)cccc1Cl)C2 [Compound I-83] |  | E (mass modification of ≧70%)
C=CC(=O)Nc1nn(C)cc1Nc1ncc2c(n1)N(C)C(=O)N(c1c(Cl)c(OC)cc(OC)c1Cl)C2 [Compound I-117] |  | E (mass modification of ≧70%)
C=CC(=O)Nc1ccccc1Nc1ncc2cc(-c3cc(OC)cc(OC)c3)c(N)nc2n1 [Compound I-155] | E (mass modification of ≧70%) | 
C=CC(=O)NCc1ccccc1Nc1ncc2c(n1)N(Cc1cccc(NC(=O)CC)c1)C(=O)N(c1c(Cl)c(OC)cc(OC)c1Cl)C2 [Compound I-179] | E (mass modification of ≧70%) | 
